Data from paper PMC7819943, “Rice protein-binding microarrays: a tool to detect cis-acting elements near promoter regions in rice”.
This is one part of the list.

What follows are sequences tested against T1, OsWOX13 (Oryza sativa, UniProt Q5QMM3 1-267) (assay: protein-binding microarray (RPBM); PBS, 2% BSA, 51.3 ng/ul salmon testes DNA, 50 uM zinc acetate, 200 nM TF, 25 C, 1 h; high values mean tight binding). Conditions: protein: recombinant; tags: N-terminal polyhistidine and DsRed monomer fusion (pET32a); label: CyDye5-dUTP incorporated in the synthesized complementary strand; 3' TTTTT single-stranded linker to array surface; dsDNA, one strand shown.
T1 sequence: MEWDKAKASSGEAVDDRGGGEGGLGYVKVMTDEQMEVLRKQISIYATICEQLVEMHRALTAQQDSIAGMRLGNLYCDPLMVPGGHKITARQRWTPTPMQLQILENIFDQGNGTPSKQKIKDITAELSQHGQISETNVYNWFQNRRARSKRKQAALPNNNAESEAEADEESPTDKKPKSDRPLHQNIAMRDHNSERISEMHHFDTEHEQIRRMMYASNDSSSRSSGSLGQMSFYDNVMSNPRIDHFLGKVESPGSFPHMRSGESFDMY
In short: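 Polyhistidine-tagged DsRed fusions of transcription factors, joined at the N-terminus, were expressed in E. coli BL21-CodonPlus and isolated on Ni–NTA. They were incubated at 200 nM for 1 h at 25 °C on a custom Agilent array, double-stranded and BSA-blocked, in PBS with 2% BSA, salmon testes DNA and 50 µM zinc acetate. The binding signal is per-feature fluorescence intensity (arbitrary units) read on an Axon 4000B scanner after washing.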

Sequence | binding signal
AGCACAAATTAAATGGTAAATCCTAAAAGCATTGCGTATTCGGAGTCACCTAGTGCAG | 17600 fluorescence intensity (a.u.)
CACATGCACATATATATTGATAGATCATCTATACATAGATCGGAGTCACCTAGTGCAG | 3360 fluorescence intensity (a.u.)
CGTATACATTTTACCATAATTTATATAATAATTGGTTTTACGGAGTCACCTAGTGCAG | 8690 fluorescence intensity (a.u.)
CAGACAGATAGAAAGAGACCTATATATATCGCCGATCAATCGGAGTCACCTAGTGCAG | 3330 fluorescence intensity (a.u.)
TAAATTTAATGTTATATCTGTAATTTTGTGACACACCGAACGGAGTCACCTAGTGCAG | 8220 fluorescence intensity (a.u.)
TATTGTGATTTAAGGATACGAATCAGATTCGATCACTAGTCGGAGTCACCTAGTGCAG | 6190 fluorescence intensity (a.u.)
CTAGATTAGATTTGCACGGCATCACATGTAGTGCACGCGACGGAGTCACCTAGTGCAG | 36500 fluorescence intensity (a.u.)
ATTATCAATTTGTTATTGTGTACCTCGGTTGACTCCTGGACGGAGTCACCTAGTGCAG | 7760 fluorescence intensity (a.u.)
TGCGATTATTAGCTTGTAATGATACTATCTGATCATGCAACGGAGTCACCTAGTGCAG | 3450 fluorescence intensity (a.u.)
TCAGACAAATTAAGTTTTAGCTTAGCTTATCACTTAACGGCGGAGTCACCTAGTGCAG | 7680 fluorescence intensity (a.u.)
AGGATGATTGATTGATAAATAAAGAAGAAACAGATTCTGCCGGAGTCACCTAGTGCAG | 48000 fluorescence intensity (a.u.)
TTCTAAATTGTATTTCTATATGGACTCTAGTCTTCTCTTCCGGAGTCACCTAGTGCAG | 4600 fluorescence intensity (a.u.)
CATATAACCAATCATGTATGGAAGAATAGGGAGTCACACACGGAGTCACCTAGTGCAG | 7910 fluorescence intensity (a.u.)
TCTATACGTTTCAATTTAAATTTGACTACGGCTTATAAGACGGAGTCACCTAGTGCAG | 7000 fluorescence intensity (a.u.)
CACAAATTAAAAGTCACTTTGGCTCTGTTTGGCAAATGGGCGGAGTCACCTAGTGCAG | 10300 fluorescence intensity (a.u.)
TTATCAATAATAATTGCCCGTGCAAAGCATGAGTTGATGGCGGAGTCACCTAGTGCAG | 5280 fluorescence intensity (a.u.)
TAGGTTAAATTTGAACTTACATGTTTGTGACGTGATACATCGGAGTCACCTAGTGCAG | 3750 fluorescence intensity (a.u.)
AAGAGAGACAGATTTAAACCAGCTCAGCCAATCCCCTCCCCGGAGTCACCTAGTGCAG | 4530 fluorescence intensity (a.u.)
TGTGATTGCACATATATTTTCCTATTCCACATATTCCACACGGAGTCACCTAGTGCAG | 34000 fluorescence intensity (a.u.)
ATATAATTAAAGCACAAACTGAAGGAGATCGAAACCAAAACGGAGTCACCTAGTGCAG | 10800 fluorescence intensity (a.u.)
TTTACATGATATAACTGAAACAAGTCTCTATTGCAATTAGCGGAGTCACCTAGTGCAG | 4640 fluorescence intensity (a.u.)

Sequence | binding signal
GGCACATGGAAATGCTGATTGAGACCACTGTAACTTCTGCCGGAGTCACCTAGTGCAG | 20300 fluorescence intensity (a.u.)
TCAACTAAACTTATAATTTTAGCGTGAAGTAAACACACCCCGGAGTCACCTAGTGCAG | 3760 fluorescence intensity (a.u.)
CGGATTGGTAAAACCGGGACTACAGAAGGTTATGAACCGGCGGAGTCACCTAGTGCAG | 3150 fluorescence intensity (a.u.)
GCATTAGTTAATTGGCTTTATTCAACCTGGATTGTTTAAGCGGAGTCACCTAGTGCAG | 24400 fluorescence intensity (a.u.)
CTTGATTTGCTTATGTAGTACTACTTCACCCGGCCCGTGCCGGAGTCACCTAGTGCAG | 28500 fluorescence intensity (a.u.)
TTTTATTGACTAATTTATGGGGTTTGTTTTGCCACTTTTGCGGAGTCACCTAGTGCAG | 36800 fluorescence intensity (a.u.)
TCTAATGGAAGATTTGAAGAAAGAGTGTATATGTGTGCATCGGAGTCACCTAGTGCAG | 10200 fluorescence intensity (a.u.)
ATTAATATGATTAAATAGAAATTAGTTACTCTCTTTGTCCCGGAGTCACCTAGTGCAG | 28500 fluorescence intensity (a.u.)
GAGACGAATTTATTAAGCCTAATTAATTCATTATTAGCACCGGAGTCACCTAGTGCAG | 10800 fluorescence intensity (a.u.)
AAGCTTGATGGGAATGATGATACCAATCTGACGGCCGAGACGGAGTCACCTAGTGCAG | 14500 fluorescence intensity (a.u.)
GAAATGTGAATGACTATCTAGATTAGGATTTAGGAACCAGCGGAGTCACCTAGTGCAG | 6180 fluorescence intensity (a.u.)
ATTGATTGGCTGAGCTCCAGCTCCAGGAGGGGTGGAGTTGCGGAGTCACCTAGTGCAG | 42300 fluorescence intensity (a.u.)
ATAATCTGTTAATTTCAGTAAGTCTCACCTTATATGCTTCCGGAGTCACCTAGTGCAG | 5580 fluorescence intensity (a.u.)
CATACATAATGTTTATTACCAATCATATAACTCTGGTTTGCGGAGTCACCTAGTGCAG | 15500 fluorescence intensity (a.u.)
ACATGATTTGTGCTCCATGACCTCTTTCTTCTATTATCTACGGAGTCACCTAGTGCAG | 18600 fluorescence intensity (a.u.)
CAAGTTCCAATCAGATTTTCAGCTGGTCACTGTCTTGCTGCGGAGTCACCTAGTGCAG | 6810 fluorescence intensity (a.u.)
CTCATTTACTTACAAATAGTATCAATCATGCAATTTGGTTCGGAGTCACCTAGTGCAG | 6100 fluorescence intensity (a.u.)
TTTGTTCTAATCATCCTTCGATTGGGTTGGGTTGAGCAATCGGAGTCACCTAGTGCAG | 4470 fluorescence intensity (a.u.)
ATCATACGTAATTGTTAGTAAGACGCAAGACCATGTTATGCGGAGTCACCTAGTGCAG | 6230 fluorescence intensity (a.u.)
GAAAACACCTGATTTGTTTATTGAAGTTCGGACCCACGGACGGAGTCACCTAGTGCAG | 7080 fluorescence intensity (a.u.)
AAGATTGATATTTAGTATTAAGATAACAAGATAAGTTGTTCGGAGTCACCTAGTGCAG | 28200 fluorescence intensity (a.u.)

Sequence | binding signal
GTTCAAATGTAATTATTTACCACTTTATTTAATCTTAATACGGAGTCACCTAGTGCAG | 5400 fluorescence intensity (a.u.)
TTCAAGACAGCCATTTAATTAATACTTTGCACGAAACTAACGGAGTCACCTAGTGCAG | 9920 fluorescence intensity (a.u.)
GATCTGTCACTTGACTATCTATCACGGGAAGGCCCAGTTTCGGAGTCACCTAGTGCAG | 4820 fluorescence intensity (a.u.)
ATATCTAATTAACAAGCTTCCATCGATTGATTCCCTCAGACGGAGTCACCTAGTGCAG | 28000 fluorescence intensity (a.u.)
TGGTGTGGGGATTAAAGAGGATTAGAGGGGATTGAGAGAGCGGAGTCACCTAGTGCAG | 3330 fluorescence intensity (a.u.)
ATGACGAGATAAATTAAGTAAGAGGCCTATAAAGGAGTAGCGGAGTCACCTAGTGCAG | 18200 fluorescence intensity (a.u.)
GAGCTATTAGATTGGCTATAGATAAATTAGAGCTAGTAGTCGGAGTCACCTAGTGCAG | 31600 fluorescence intensity (a.u.)
CTATGTCTGTGTTTGATGATTGCAAGCTGATGTGGGATGGCGGAGTCACCTAGTGCAG | 9180 fluorescence intensity (a.u.)
GGAGTGCAAATTAGTCCGGATTTTACTGAATATTGATAACCGGAGTCACCTAGTGCAG | 3300 fluorescence intensity (a.u.)
GACACTGGATTACCAATAGACAGATGAACCATGTGTGCCCCGGAGTCACCTAGTGCAG | 9810 fluorescence intensity (a.u.)
ACCGGATGATTAATTGAGTATTCATTATTTTAGACTTGATCGGAGTCACCTAGTGCAG | 36400 fluorescence intensity (a.u.)
CATGTGAAAGTTTTGACTGATAGCCGATTGGGCTATTTGGCGGAGTCACCTAGTGCAG | 4340 fluorescence intensity (a.u.)
AATTGCGTCATGATTTGACAATGTGGTGCTACAGTAAACACGGAGTCACCTAGTGCAG | 4960 fluorescence intensity (a.u.)
GTAATAAACTCATTGATGAACGGTTCAGATCATGTCCTGTCGGAGTCACCTAGTGCAG | 7460 fluorescence intensity (a.u.)
AGCTAACTTCATATTGGAAGAGATTGATCATTTGCATGTACGGAGTCACCTAGTGCAG | 4080 fluorescence intensity (a.u.)
TTACTAATTAGGAGGAGTATTAATGTATTATTACACGTAACGGAGTCACCTAGTGCAG | 18500 fluorescence intensity (a.u.)
GAAAATTAACAAGTTTAAGGAGTCAGCATGGAAATTCGTCCGGAGTCACCTAGTGCAG | 9750 fluorescence intensity (a.u.)
TGTTATATAAATTTGATCAAAATTAAAGAAGTTTGACTTACGGAGTCACCTAGTGCAG | 11900 fluorescence intensity (a.u.)
AATTACTGATTACTAGTATTAAACAAGAGTTTAGTGTCGCCGGAGTCACCTAGTGCAG | 23700 fluorescence intensity (a.u.)
TGAGAAAGGTTGTGATTGATTGAGAAGAGAAAAGTGAAAACGGAGTCACCTAGTGCAG | 27300 fluorescence intensity (a.u.)
ACTTAATTATGTTGTGGTTAATTAGCCCCGAAATGGTCGTCGGAGTCACCTAGTGCAG | 52900 fluorescence intensity (a.u.)

Sequence | binding signal
TAGGTGATTAGTTGATTAATTAATCTTGAGCTCCTCCTAACGGAGTCACCTAGTGCAG | 58800 fluorescence intensity (a.u.)
GGGGTGTGATCGGTCAATTTCAAATTGGATAATGGCTAAACGGAGTCACCTAGTGCAG | 8330 fluorescence intensity (a.u.)
AACCCTGATTATCATATGATCTTAGGAGTTACTCGACGCCCGGAGTCACCTAGTGCAG | 34700 fluorescence intensity (a.u.)
CCGCAACAATCAATGGATGAGATTCATCTTGCGATCCTTCCGGAGTCACCTAGTGCAG | 8140 fluorescence intensity (a.u.)
CGGTTAGATTACATTGGTACCTCATGATATCTCGTACCTCCGGAGTCACCTAGTGCAG | 4680 fluorescence intensity (a.u.)
AGGCTGATTGCCAAAACTCAATGCCAGCTTGAAGGCAGTACGGAGTCACCTAGTGCAG | 8420 fluorescence intensity (a.u.)
TTAACCAAATTTTCAATTTCAACGTGAACTAAACACATGTCGGAGTCACCTAGTGCAG | 6820 fluorescence intensity (a.u.)
GTGATTTGTTCGAAATTGTGCTAGTTCCAACCAAAATACACGGAGTCACCTAGTGCAG | 12500 fluorescence intensity (a.u.)
TTTTGTGATAATTTTATTACTAAATCTATAGTTTGGTGATCGGAGTCACCTAGTGCAG | 5520 fluorescence intensity (a.u.)
AGATAATTTTAAATTGATGATAGCCGTGTAGTTGTGCGGGCGGAGTCACCTAGTGCAG | 44600 fluorescence intensity (a.u.)
ATTAAGTCTAATTAATCTGTTATTAGCAAATGTTTACTGTCGGAGTCACCTAGTGCAG | 11100 fluorescence intensity (a.u.)
GAACTTAATTTTGAGTCATGCCAAAACGTCGAAATTTCACCGGAGTCACCTAGTGCAG | 10100 fluorescence intensity (a.u.)
CACGTAATCACGGCATGATCCAACGGTGCTGGATGACTGACGGAGTCACCTAGTGCAG | 4760 fluorescence intensity (a.u.)
GTAAATAGATACAAATATATATATTTATCTATTAGTTTATCGGAGTCACCTAGTGCAG | 5870 fluorescence intensity (a.u.)
TAATTAGTCCATGATTAGCCATAAGTGTTATAGTAACTCACGGAGTCACCTAGTGCAG | 4330 fluorescence intensity (a.u.)
CCGGAGGCATGATTTTGTTAAACAGGAGAGTTGAACGATGCGGAGTCACCTAGTGCAG | 5120 fluorescence intensity (a.u.)
AGGCAAATTGAAACCGAAGTATTAGTCCTTCACGCCAAAGCGGAGTCACCTAGTGCAG | 21000 fluorescence intensity (a.u.)
GGTAACTGACGAGATTTGCATCCTTATTTCTAGCTAGTCCCGGAGTCACCTAGTGCAG | 25200 fluorescence intensity (a.u.)
CAGACTGACAAGTGACAAGCAGAGGGCATCTCAGTACGCGCGGAGTCACCTAGTGCAG | 3390 fluorescence intensity (a.u.)
GAAAATTGCAATCTAGTACTCCCAACGTTCCAGAATATAACGGAGTCACCTAGTGCAG | 9350 fluorescence intensity (a.u.)
TCGGTCTGCAAACAAATTGATTGATTTGTTTTCCTTTTGCCGGAGTCACCTAGTGCAG | 47100 fluorescence intensity (a.u.)
